# Measured values taken from PubChem BioAssay (Tox21).
# The inconclusive results got no clear call from the source; some entries with a clear call stand among them for comparison. For part of these data: No potency is given beside an inconclusive call; the fits are too rough. Calls of active or inactive are those of the source. Unless noted, calls come from the whole dose curve; as a rule, active = well fitted curve in the direction sought with a large enough effect in the repeat runs; inconclusive = weak or mixed curves; inactive = no such curve, though single readings can be large; an effect the other way counts as inactive or inconclusive.
# Key:
# [1] = qHTS assay to identify small molecule antagonists of the androgen receptor (AR) signaling pathway using the MDA cell line - cell viability counter screen (AID 743041; note: nearly all actives have a fitted effect of over 45% in size; note: potency is the fitted concentration of half-maximal effect; for viability change, negative = cytotoxic: % is set by controls: 0 for no effect and ±100 for the full control effect); details: MDA-kb2 viability, CellTiter-Fluor, 16 h, cells co-treated with R1881 androgen agonist; viability change, negative = cytotoxic: at 70.3 µM (top of the series)
# Procedure, shortened: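 MDA-kb2 AR-luc human breast carcinoma cells (MMTV-luciferase, AR/GR responsive) were treated with compounds plus R1881 agonist for 16 h at 37 °C. Viability was read as CellTiter-Fluor fluorescence in the same wells as the reporter assay.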
# [2] = qHTS RealTime-Glo MT Cell Viability Assay in HEK293 cells - 16 hour (AID 1224872); note: nearly all actives have a fitted effect of over 50% in size; note: potency is the fitted concentration of half-maximal effect
# Procedure, shortened: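 HEK293 cells seeded with NanoLuc/prosubstrate reagent, rested 5 h at 37 C, then dosed and kept at 37 C up to 40 h. Nonlytic real-time luminescence from viable cells read at 0, 8, 16, 24, 32 and 40 h.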
# [3] = qHTS RealTime-Glo MT Cell Viability Assay in HEK293 cells - 40 hour (AID 1224874); details: RealTime-Glo luminescence; max response: hits give low values; note: nearly all actives have a fitted effect of over 50% in size; note: potency is the fitted concentration of half-maximal effect; for max response: % is set by controls: 0 for no effect and ±100 for the full control effect
# Procedure, shortened: (§1)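 Tox21 screen in HEK293 using RealTime-Glo MT chemistry, with cells and reagent co-dispensed. Luminescence proportional to viable cell number was captured at intervals during 40 h compound exposure at 37 C.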
# [4] = qHTS RealTime-Glo MT Cell Viability Assay in HEK293 cells - 8 hour (AID 1224887); note: nearly all actives have a fitted effect of over 50% in size; note: potency is the fitted concentration of half-maximal effect
# Procedure, shortened: as §1
# [5] = target: Thyrotropin receptor (Homo sapiens) (UniProt P16473); assay: qHTS assay to identify small molecule antagonists of the thyroid stimulating hormone receptor (TSHR) signaling pathway (AID 1259385; calls by dose curve; note: % is set by controls: 0 for no effect and ±100 for the full control effect; nearly all actives have a fitted effect of over 20% in size); details: TSHR-HEK293 cAMP HTRF, TSH-stimulated antagonist mode; activity change, negative = inhibition: at 92.4 µM (top of the series) unless noted
# Sequence of UniProt P16473 (P16473 whole entry, looked up): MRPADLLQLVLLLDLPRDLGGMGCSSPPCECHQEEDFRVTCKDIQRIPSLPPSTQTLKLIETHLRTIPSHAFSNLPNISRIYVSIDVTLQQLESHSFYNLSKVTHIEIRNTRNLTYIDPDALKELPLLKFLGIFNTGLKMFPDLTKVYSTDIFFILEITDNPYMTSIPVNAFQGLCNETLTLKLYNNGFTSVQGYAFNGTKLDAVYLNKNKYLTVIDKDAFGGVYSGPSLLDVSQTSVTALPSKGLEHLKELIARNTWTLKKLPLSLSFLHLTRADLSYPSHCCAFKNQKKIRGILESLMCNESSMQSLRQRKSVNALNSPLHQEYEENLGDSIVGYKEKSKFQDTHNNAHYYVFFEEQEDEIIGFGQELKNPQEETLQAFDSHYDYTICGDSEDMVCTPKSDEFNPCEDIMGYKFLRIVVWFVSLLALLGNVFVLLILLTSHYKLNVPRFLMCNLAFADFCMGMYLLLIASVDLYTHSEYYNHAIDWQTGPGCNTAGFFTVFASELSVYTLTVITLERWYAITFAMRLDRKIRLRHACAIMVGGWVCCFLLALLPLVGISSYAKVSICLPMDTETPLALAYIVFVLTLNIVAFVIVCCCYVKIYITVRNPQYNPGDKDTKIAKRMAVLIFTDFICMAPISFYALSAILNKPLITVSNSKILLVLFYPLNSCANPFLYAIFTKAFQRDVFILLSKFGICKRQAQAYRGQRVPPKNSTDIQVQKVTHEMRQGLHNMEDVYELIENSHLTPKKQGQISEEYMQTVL
# Procedure, shortened: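 TSHR-HEK293 cells were plated and held 18 h at 37C/5% CO2, then given compound plus Ro20-1724 and stimulated with TSH at 1.5 ng/mL final. After 30 min at room temperature, cAMP was detected with cAMP-d2/anti-cAMP-cryptate (1 h) by fluorescence.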
# [6] = qHTS assay to identify small molecule agonists of the TGF-beta/Smad signaling pathway (AID 1346859; active = well fitted activation curve with a large enough effect in the signal ratio in the repeat runs, not every such curve was filed as active; inconclusive = weak or mixed curves; the % refers to the signal ratio; note: potency is the fitted concentration of half-maximal effect)
# Procedure, shortened: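 Beta-lactamase reporter activity downstream of Smad binding elements was measured in stably transfected HEK 293T cells; compounds were incubated for 5 hr, substrate for 2 hr at room temperature.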
# [7] = target: Voltage-gated inwardly rectifying potassium channel KCNH2 (Homo sapiens) (UniProt Q12809); assay: Human Ether-a-go-go-Related Gene (hERG) channel small molecule antagonists: fluorescence cell-based qHTS assay (AID 1671200); note: nearly all actives have a fitted effect of over 50% in size; note: potency is the fitted concentration of half-maximal effect
# Sequence of UniProt Q12809 (Q12809 whole entry, looked up): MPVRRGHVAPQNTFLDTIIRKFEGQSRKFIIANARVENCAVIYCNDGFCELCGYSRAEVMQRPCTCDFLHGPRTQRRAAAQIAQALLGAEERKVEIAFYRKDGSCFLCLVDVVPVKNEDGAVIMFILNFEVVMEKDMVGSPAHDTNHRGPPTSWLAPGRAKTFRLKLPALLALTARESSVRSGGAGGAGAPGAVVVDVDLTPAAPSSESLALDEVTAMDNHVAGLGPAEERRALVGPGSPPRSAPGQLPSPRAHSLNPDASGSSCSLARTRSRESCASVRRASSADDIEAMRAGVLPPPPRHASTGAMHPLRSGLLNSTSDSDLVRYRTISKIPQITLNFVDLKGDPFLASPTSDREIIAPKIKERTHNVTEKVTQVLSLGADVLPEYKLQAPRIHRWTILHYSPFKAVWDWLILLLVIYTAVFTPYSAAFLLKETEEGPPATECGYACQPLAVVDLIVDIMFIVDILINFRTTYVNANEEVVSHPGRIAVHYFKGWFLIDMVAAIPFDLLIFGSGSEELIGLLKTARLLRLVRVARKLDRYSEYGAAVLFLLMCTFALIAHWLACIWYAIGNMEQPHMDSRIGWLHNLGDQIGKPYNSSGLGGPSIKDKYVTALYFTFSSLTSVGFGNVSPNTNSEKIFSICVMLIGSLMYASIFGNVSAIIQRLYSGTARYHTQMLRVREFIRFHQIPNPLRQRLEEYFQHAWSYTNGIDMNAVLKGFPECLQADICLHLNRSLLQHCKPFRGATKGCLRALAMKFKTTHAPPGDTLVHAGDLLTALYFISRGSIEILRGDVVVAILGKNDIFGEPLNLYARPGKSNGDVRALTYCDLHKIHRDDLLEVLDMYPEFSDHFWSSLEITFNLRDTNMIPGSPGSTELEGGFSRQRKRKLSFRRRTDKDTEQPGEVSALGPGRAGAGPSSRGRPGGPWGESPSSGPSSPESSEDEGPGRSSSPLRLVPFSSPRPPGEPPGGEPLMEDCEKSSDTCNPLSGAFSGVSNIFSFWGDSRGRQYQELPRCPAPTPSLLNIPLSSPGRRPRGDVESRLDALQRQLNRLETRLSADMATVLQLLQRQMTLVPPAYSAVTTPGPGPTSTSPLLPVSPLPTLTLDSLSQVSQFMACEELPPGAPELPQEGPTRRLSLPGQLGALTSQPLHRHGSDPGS
# Procedure, shortened: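 Cell line hERG-U2OS; dye FluxOR II, 1 h RT dark; Tl+ stimulus; ex 480/em 540 nm, read each second for 2 min.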
# [8] = target: Estrogen receptor (Homo sapiens) (UniProt P03372); assay: qHTS assay to identify small molecule antagonists of the estrogen receptor alpha (ER-alpha) signaling pathway (AID 743069; active = well fitted curve in the direction sought with a large enough effect in the signal ratio in the repeat runs, not every such curve was filed as active; inconclusive = weak or mixed curves, or effect the other way; inactive = no such curve, though single readings can be large or run the other way; the % refers to the signal ratio; note: % is set by controls: 0 for no effect and ±100 for the full control effect); details: HEK293 ER-alpha-UAS-bla, beta-lactamase ratio, antagonist mode; activity, negative = inhibition: at 69.4 µM (top of the series) unless noted
# Sequence of UniProt P03372 (P03372 whole entry, looked up): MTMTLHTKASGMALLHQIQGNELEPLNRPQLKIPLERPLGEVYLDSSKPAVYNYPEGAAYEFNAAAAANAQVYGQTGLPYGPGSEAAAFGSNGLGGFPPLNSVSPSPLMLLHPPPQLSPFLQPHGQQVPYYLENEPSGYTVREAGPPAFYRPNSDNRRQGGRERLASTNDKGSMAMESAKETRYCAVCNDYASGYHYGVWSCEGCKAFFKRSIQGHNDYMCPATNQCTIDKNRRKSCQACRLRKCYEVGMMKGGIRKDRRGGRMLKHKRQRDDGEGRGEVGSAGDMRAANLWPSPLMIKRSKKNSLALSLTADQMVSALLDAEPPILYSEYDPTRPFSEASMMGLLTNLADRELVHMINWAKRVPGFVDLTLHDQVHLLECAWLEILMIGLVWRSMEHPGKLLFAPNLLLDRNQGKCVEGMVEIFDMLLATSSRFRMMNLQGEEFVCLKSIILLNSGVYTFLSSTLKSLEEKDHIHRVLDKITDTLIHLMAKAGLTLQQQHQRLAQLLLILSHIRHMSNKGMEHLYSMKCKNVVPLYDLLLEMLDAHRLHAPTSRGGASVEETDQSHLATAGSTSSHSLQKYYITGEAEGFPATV
# Procedure, shortened: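 HEK293 cells stably carrying an ER-alpha-UAS-bla beta-lactamase reporter were pre-cultured overnight in 2% charcoal-stripped FBS medium. Test compounds in DMSO were added together with 17beta-estradiol for 18 hr at 37C. Read-out was fluorescence after 2 hr with LiveBLAzer B/G FRET substrate at room temperature.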
# [9] = A CellTox Green Cytotoxicity Assay to monitor cytotoxicity in HepG2 cells - 40 hour (AID 1224879); note: nearly all actives have a fitted effect of over 40% in size; note: potency is the fitted concentration of half-maximal effect
# Procedure, shortened: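 Nonlytic assay: viable cells exclude the dye, so fluorescence scales with cell death. HepG2 at 600 cells/well, compounds added after 5 h, signal read across 40 h.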
# [10] = A CellTox Green Cytotoxicity Assay to monitor cytotoxicity in HEK293 cells - 32 hour (AID 1224881); note: potency is the fitted concentration of half-maximal effect; nearly all actives have a fitted effect of over 40% in size
# Procedure, shortened: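 Seeding of HEK293 cells together with cytotoxicity dye preceded a 5 h incubation at 37 C/5% CO2. Test compounds in DMSO were then added and fluorescence monitored across 40 h.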
# [11] = qHTS assay to identify small molecule antagonists of the estrogen receptor beta (ER-beta) signaling pathway - cell viability counter screen (AID 1259382); note: nearly all actives have a fitted effect of over 55% in size; note: potency is the fitted concentration of half-maximal effect
# Procedure, shortened: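 Agonist-stimulated (1nM E2) ER-beta-UAS-bla HEK293T cells are incubated with library compounds for 16 hr at 37C. Cell viability is then assessed in the reporter-assay wells by adding CellTiter-Glo and reading luminescence after 30 min.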
# [12] = target: Androgen receptor (Homo sapiens) (UniProt P10275); assay: qHTS assay to identify small molecule antagonists of the androgen receptor (AR) signaling pathway (AID 743035; active = well fitted inhibition curve with a large enough effect in the signal ratio in the repeat runs, not every such curve was filed as active; inconclusive = weak or mixed curves, or effect the other way; inactive = no such curve, though single readings can be large or run the other way; the % refers to the signal ratio; note: % is set by controls: 0 for no effect and ±100 for the full control effect); details: HEK293 AR-UAS-bla, R1881-stimulated, beta-lactamase FRET, 16 h; activity change, negative = inhibition: at 58.5 µM (top of the series) unless noted
# Sequence of UniProt P10275 (P10275 whole entry, looked up): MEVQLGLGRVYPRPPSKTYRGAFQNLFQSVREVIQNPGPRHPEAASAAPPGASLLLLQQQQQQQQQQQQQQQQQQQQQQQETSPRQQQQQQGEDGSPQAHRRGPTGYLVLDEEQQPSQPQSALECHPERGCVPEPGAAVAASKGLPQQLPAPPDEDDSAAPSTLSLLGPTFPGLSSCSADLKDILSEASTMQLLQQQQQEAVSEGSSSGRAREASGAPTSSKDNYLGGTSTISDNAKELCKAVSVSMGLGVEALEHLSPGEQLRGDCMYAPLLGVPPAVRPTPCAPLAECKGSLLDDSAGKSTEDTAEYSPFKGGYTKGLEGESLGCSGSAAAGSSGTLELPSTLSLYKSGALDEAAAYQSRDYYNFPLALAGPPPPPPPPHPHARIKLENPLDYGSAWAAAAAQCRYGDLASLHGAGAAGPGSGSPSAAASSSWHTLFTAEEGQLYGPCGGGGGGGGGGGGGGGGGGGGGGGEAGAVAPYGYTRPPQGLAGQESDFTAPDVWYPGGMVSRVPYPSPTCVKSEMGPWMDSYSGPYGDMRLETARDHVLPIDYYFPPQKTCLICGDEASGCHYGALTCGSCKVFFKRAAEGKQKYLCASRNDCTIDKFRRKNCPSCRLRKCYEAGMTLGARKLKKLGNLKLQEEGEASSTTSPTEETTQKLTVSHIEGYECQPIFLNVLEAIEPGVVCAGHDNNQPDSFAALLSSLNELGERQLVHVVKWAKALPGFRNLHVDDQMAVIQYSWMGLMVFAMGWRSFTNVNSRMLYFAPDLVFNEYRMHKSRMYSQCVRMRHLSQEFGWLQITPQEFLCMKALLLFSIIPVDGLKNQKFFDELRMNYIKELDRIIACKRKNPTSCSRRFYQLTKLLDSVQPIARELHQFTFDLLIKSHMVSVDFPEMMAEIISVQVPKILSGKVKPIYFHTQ
# Procedure, shortened: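 Using qHTS, AR-UAS-bla GripTite HEK293 cells received compound, then R1881, and were cultured 16 h at 37C/5% CO2 before a 2 h room-temperature LiveBLAzer B/G FRET substrate step and fluorescence measurement.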
# [13] = qHTS assay to identify small molecule antagonists of the vitamin D receptor (VDR) signaling pathway - cell viability counter screen (AID 743225); details: VDR-bla HEK293T viability, CellTiter-Glo luminescence, 16 h; viability change, negative = cytotoxic: at 61 µM (top of the series) unless noted; note: nearly all actives have a fitted effect of over 50% in size; note: potency is the fitted concentration of half-maximal effect
# Procedure, shortened: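 Luminescent cell viability (CellTiter-Glo) in VDR-bla HEK 293T cells after 16 h compound exposure at 37C in the presence of 3 nM final 1-alpha,25-dihydroxy vitamin D3.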
# [14] = target: Cytochrome P450 3A4 (Homo sapiens) (UniProt P08684); assay: Cytochrome P450 Family 3 Subfamily A Member 4 (CYP3A4) small molecule antagonists: luciferase reporter qHTS assay (AID 1671201)
# Sequence of UniProt P08684 (P08684 whole entry, looked up): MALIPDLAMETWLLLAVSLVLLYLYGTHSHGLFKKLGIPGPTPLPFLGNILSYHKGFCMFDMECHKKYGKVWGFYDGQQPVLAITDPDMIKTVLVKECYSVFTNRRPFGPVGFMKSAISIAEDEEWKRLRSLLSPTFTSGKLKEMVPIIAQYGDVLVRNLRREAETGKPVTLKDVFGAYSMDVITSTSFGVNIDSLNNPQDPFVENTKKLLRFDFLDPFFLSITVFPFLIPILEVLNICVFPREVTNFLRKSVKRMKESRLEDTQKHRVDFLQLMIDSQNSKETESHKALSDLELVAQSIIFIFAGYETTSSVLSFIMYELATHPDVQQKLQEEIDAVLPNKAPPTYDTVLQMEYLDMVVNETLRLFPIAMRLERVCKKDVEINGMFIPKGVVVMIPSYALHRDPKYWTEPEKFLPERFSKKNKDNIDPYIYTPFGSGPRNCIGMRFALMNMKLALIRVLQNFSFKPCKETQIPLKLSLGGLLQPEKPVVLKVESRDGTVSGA
# Procedure, shortened: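 Room-temperature assay throughout: 10 min compound–enzyme/substrate preincubation, 1 h reaction after NADPH regeneration solution, 20 min detection. Luciferin formed from proluciferin substrate is quantified by luminescence.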
# [15] = qHTS assay to identify small molecule antagonists of the estrogen receptor alpha (ER-alpha) signaling pathway using the BG1 cell line (AID 743080; calls by dose curve;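 note: BG1 cells stimulated with 17beta-estradiol alongside compound; nearly all actives have a fitted effect of over 25% in size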; note: potency is the fitted concentration of half-maximal effect); details: BG1Luc4E2 ERE-luciferase antagonist mode, luminescence; activity change, negative = inhibition: at 70.3 µM (top of the series) unless noted
# Procedure, shortened: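 BG1-Luc-4E2 cells (endogenous full-length ER-alpha, 4xERE luciferase) hormone-starved 5 days in charcoal-stripped FBS, plated 4,000/well for 24 h, then compound plus 17beta-estradiol for 21.5 h at 37 C; ONE-Glo luminescence read.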
# [16] = qHTS assay to identify small molecule agonists of the sonic hedgehog signaling (Shh) pathway - cell viability counter screen (AID 1259366)
# Procedure, shortened: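 Fluorescence from CellTiter-Fluor reports live cells in this counter screen. NIH/3T3-derived Gli1-Luc reporter cells receive test compounds for 24hr at 37C; reagent goes in at 23hr.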
# [17] = qHTS assay to identify small molecule antagonists of the peroxisome proliferator-activated receptor gamma (PPARg) signaling pathway - cell viability counter screen (AID 743194); details: PPARg-bla HEK293H viability, CellTiter-Glo luminescence, 17 h, co-treated with 50 nM rosiglitazone; activity change, negative = cytotoxicity: at 62.6 µM (top of the series) unless noted; note: % is set by controls: 0 for no effect and ±100 for the full control effect; nearly all actives have a fitted effect of over 55% in size
# Procedure, shortened: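 PPARg-UAS-bla HEK293H cells were plated, rested 5 h at 37 C, then treated with compounds plus rosiglitazone (50 nM final) for 17 h at 37 C; viability was then read by CellTiter-Glo luminescence after 30 min at room temperature.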
# [18] = Human pregnane X receptor (PXR) small molecule agonists, qHTS cell viability counter screen (AID 1346977)
# Procedure, shortened: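 After a 5hr pre-incubation, PXR-Luc HepG2 cells received compounds plus positive control in DMSO and were kept 24hr at 37C. Cell viability was quantified by fluorescence from CellTiter-Fluor added for the final hour.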
# [19] = qHTS assay to identify small molecule agonists of the vitamin D receptor (VDR) signaling pathway - cell viability counter screen (AID 743224)
# Procedure, shortened: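 Here cell health was gauged by luminescent ATP detection (CellTiter-Glo, 30 min RT) in VDR-bla cells that had been incubated with test compounds for 16 h at 37C and 5% CO2.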
# Tags give direction and shape of the fitted curve or compound fluorescence and quenching.
smiles,measurement,setting,value
CCCCC(CC)COCCC#N (centres undefined),Potency,[1],"inconclusive [rising, partial curve, poor fit]"
COc1ccc(C(=O)c2ccc(C)cc2)c(O)c1,Potency,[2],"inconclusive [cytotoxic, partial curve]"
same,Potency,[3],"inconclusive [cytotoxic, partial curve]"
same,Potency,[4],"inconclusive [cytotoxic, partial curve, poor fit]"
same,"activity change, negative = inhibition",[5],inconclusive: -15.3%
same,Potency,[6],"inconclusive [rising, partial curve, poor fit]"
same,Potency,[7],"inconclusive [inhibitor, partial curve]"
NS(=O)(=O)c1ccc(Cl)c(S(N)(=O)=O)c1,Potency,[1],inactive
COc1ccc(OC)c(OC)c1,Potency,[8],inactive
same,max response,[3],inactive: 15.8%
O=C(O)P(=O)(O)O,Potency,[9],inactive
CC1(C)C(=O)N(CO)C(=O)N1CO,Potency,[10],"inconclusive [activator, single point]"
same,Potency,[7],inactive
C=CC1CC2C=CC1C2 (centres undefined),max response,[3],inactive: 2.72%
same,Potency,[4],inactive
same,Potency,[11],inactive
CCOc1ccccc1OCC1CNCCO1 (centres undefined),max response,[3],inactive: 2.19%
CCc1ncc(C)[nH]1,Potency,[12],inactive
O=[N+]([O-])c1cc(C(F)(F)F)ccc1Cl,Potency,[10],"inconclusive [activator, single point]"
same,Potency,[11],"inconclusive [rising, partial curve, poor fit]"
COc1cccc(Br)c1,Potency,[13],"inconclusive [cytotoxic, full curve]"
same,max response,[3],inactive: -10%
same,Potency,[9],"inconclusive [activator, single point]"
same,Potency,[14],inactive
On1nnc2ccccc21,Potency,[15],inactive
same,Potency,[4],inactive
same,Potency,[11],"inconclusive [cytotoxic, full curve]"
C=C[Si](OCC)(OCC)OCC,Potency,[16],inactive
COC(=O)CCCCCCCCC(=O)OC,Potency,[17],inactive
same,max response,[3],inactive: 2.88%
same,Potency,[14],inactive
CCN1CCN(C(=O)N[C@@H](C(=O)N[C@@H]2C(=O)N3C(C(=O)O)=C(CSc4nnnn4C)CS[C@H]23)c2ccc(O)cc2)C(=O)C1=O,Potency,[2],inactive
same,Potency,[7],inactive
CCOc1ccc2nc(S(N)(=O)=O)sc2c1,Potency,[15],"inconclusive [rising, single point]"
same,Potency,[5],inactive
CC1(C)[C@H]2CC[C@](C)(C2)[C@H]1O,Potency,[8],inactive
same,Potency,[13],"inconclusive [cytotoxic, single point]"
same,Potency,[2],inactive
CC(C)(O)c1ccccc1,Potency,[6],inactive
same,Potency,[18],inactive
CC12CCCC=C1C(=O)OC2=O (centres undefined),Potency,[12],inactive
same,Potency,[16],inactive
CC(C)C(C)C,Potency,[13],"inconclusive [cytotoxic, single point]"
same,max response,[3],inactive: 5.69%
same,Potency,[18],inactive
CC(C)CCCCCCN,"activity change, negative = inhibition",[12],inconclusive: -19.7%
same,Potency,[14],inactive
CCOc1ccc(NC(N)=O)cc1,Potency,[17],inactive
same,Potency,[13],inactive
same,Potency,[11],inactive
same,Potency,[6],inactive
CCC(C)C(=O)OCCc1ccccc1 (centres undefined),Potency,[19],inactive
same,Potency,[13],inactive
same,Potency,[10],"inconclusive [activator, single point]"
